From publication PMC4242493 come the findings set out here.

Some of the results follow. The list includes weakly bound sequences.

The target in the assay is MaxL homodimer (UniProt P61244). The experiment in a line: universal protein-binding microarray (PBM). To be noted: PBS-based mixture, 10 nM His-tagged protein dimer, 2% milk, 200 ng/uL BSA, 50 ng/uL salmon testes DNA, 0.02% TX-100; detection with Alexa 488 anti-His …; high values mean tight binding; most listed sequences are background and not binding sites; double strand, one strand shown.
UniProt P61244, sequence (P61244 whole entry): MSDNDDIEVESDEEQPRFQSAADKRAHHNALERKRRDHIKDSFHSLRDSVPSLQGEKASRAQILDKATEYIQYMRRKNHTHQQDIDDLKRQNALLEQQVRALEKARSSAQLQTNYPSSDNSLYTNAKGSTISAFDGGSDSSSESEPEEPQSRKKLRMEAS
For the sequence AACTCTGT, the binding signal (normalized occupancy) came out at 0.0717.
Turning to CTGCATCC, the binding signal (normalized occupancy) amounted to 0.0733.
In the case of CCTCAGAG it was 0.0685; in that of GCGGTTCA, 0.0753.
Regarding CGGTCGAC, the binding signal (normalized occupancy) came to 0.0709.
Then AAAGAAAA, with 0.0698; and CCCTGTGC, with 0.077; and CGATTTTA, with 0.0735.
With CTCTTGTA, the binding signal (normalized occupancy) came to 0.0733.
In the case of CCGTGTAC it was 0.0796; in that of TGCCCTAA, 0.0763.
Take CGCTAGCC: the binding signal (normalized occupancy) was 0.0702.
Regarding CGCACACC, the binding signal (normalized occupancy) was 0.0877.
Consider CGCTGCTC, for which the binding signal (normalized occupancy) stood at 0.0761.
On to AACCATCG, for which the binding signal (normalized occupancy) stood at 0.0792.
In the case of ACCGTCAT it was 0.0743; in that of GAATAGTC, 0.0788.
In the case of AAGACGAC it was 0.0749.
Then GATAGAAA, with 0.0779; and GAGGCGGC, with 0.0663.
Turning to TGGACACA, the binding signal (normalized occupancy) was 0.0851.
Then AAGTTTCA, with 0.0733; and AGATTTAG, with 0.0713.
Then AAAAGTGT, with 0.073; and CGGTGTGC, with 0.0792.
On to AATTTCAT, for which the binding signal (normalized occupancy) is 0.0775.
In the case of TCCTTGCA it was 0.0754; in that of ATTACACA, 0.081.
On to CCAATGCG, for which the binding signal (normalized occupancy) is 0.0793.
As for CTATCCAC, the binding signal (normalized occupancy) amounted to 0.0838.
In the case of CGAGAGTA, the binding signal (normalized occupancy) came out at 0.0713.
Turning to GGGATAGA, the binding signal (normalized occupancy) came out at 0.0815.
CCACTCAC: the binding signal (normalized occupancy) is 0.0831.
In the case of GAGCATGA it was 0.0963.
Regarding GATTCCCC, the binding signal (normalized occupancy) was determined as 0.0787.
Then AGGTGCTG, with 0.0737.
Then GCCAGAGC, with 0.0663; and CCGCGATA, with 0.0783.
In the case of CTGAACCA it was 0.0757.
For the sequence CCGCCCAA, the binding signal (normalized occupancy) is 0.0759.
In the case of TATTCAGA it was 0.0792.
In the case of CTATAGCC it was 0.0725.
Consider CAAACATC, for which the binding signal (normalized occupancy) stood at 0.0763.
With CAGAATCA, the binding signal (normalized occupancy) was determined as 0.0789.
In the case of ATGATAAT it was 0.0871.
With CCTACAAC, the binding signal (normalized occupancy) stood at 0.0784.
In the case of TTAACGAA it was 0.0717; in that of GCGTAGAA, 0.0721; in that of CAGGTCCG, 0.0733.
Then ACTGGTCG, with 0.0715; and ACATGTTG, with 0.11.
Consider GCCCAGCA, for which the binding signal (normalized occupancy) came out at 0.0696.
In the case of GCGGAGAC it was 0.0696; in that of CGTATTGC, 0.0742.
Turning to ATTCTGGC, the binding signal (normalized occupancy) is 0.0753.
AAGTCGCG: the binding signal (normalized occupancy) is 0.0742.
GAAAAGAA: the binding signal (normalized occupancy) was 0.0746.
Turning to AGAAATGG, the binding signal (normalized occupancy) is 0.077.
Take ATGGCATC: the binding signal (normalized occupancy) worked out at 0.0919.
Consider GCCGCGAA, for which the binding signal (normalized occupancy) was determined as 0.0697.
In the case of GCTCAAGC it was 0.0636; in that of CACACTAG, 0.0763; in that of AACTCTAT, 0.0766.
GAACGTTA: the binding signal (normalized occupancy) came to 0.074.
Then GTTGTATA, with 0.0804; and ATACCTCG, with 0.0787.
In the case of ACACTAAA it was 0.0738; in that of GGTCCGAC, 0.0692; in that of AAGCCGTC, 0.0663.
On to GTCACCCA, for which the binding signal (normalized occupancy) was determined as 0.0789.
As for ATGGGCCA, the binding signal (normalized occupancy) is 0.0769.
In the case of ATTAGAGC, the binding signal (normalized occupancy) was determined as 0.0771.
On to GACTGTAC, for which the binding signal (normalized occupancy) stood at 0.0779.
Turning to TCACACAA, the binding signal (normalized occupancy) turned out to be 0.086.
For the sequence AGACTTAA, the binding signal (normalized occupancy) is 0.0708.
In the case of ATGAGCAA it was 0.0818.
For the sequence ATAGTCCA, the binding signal (normalized occupancy) came out at 0.0796.
As for ATCTTGGC, the binding signal (normalized occupancy) turned out to be 0.0713.
In the case of CCGTCACC it was 0.0754; in that of GGAACCAA, 0.0722.
Then ATAGGGCC, with 0.0745.
Then ATCGTTCC, with 0.0771; and CAGAGCTG, with 0.0692; and CGTCGTAG, with 0.0711.
Take TCCTCGAA: the binding signal (normalized occupancy) was 0.0669.
As for ACTAACAT, the binding signal (normalized occupancy) stood at 0.0807.
In the case of TACGCTCA it was 0.0746; in that of CCGTCACA, 0.0754; in that of CTCGCAGC, 0.0662.
Then CTGTACCC, with 0.0765; and CCCACGCA, with 0.0903; and GCGAGAGA, with 0.0775.
As for ACCGACAG, the binding signal (normalized occupancy) came to 0.0652.
In the case of ACAGTTTG it was 0.0739; in that of AGGCCGCC, 0.0676; in that of ACCTGGTG, 0.0804.
In the case of CGCATTAG, the binding signal (normalized occupancy) stood at 0.0758.
Then GACCACCA, with 0.0803; and AAGCGTAG, with 0.0679; and GTGACAAC, with 0.0813.
Then CCTTCTGC, with 0.0729.
Then GATGACCA, with 0.0763; and CGGGACGC, with 0.0716; and ACGGGAAA, with 0.0708.
For ATATCTAG, the binding signal (normalized occupancy) is 0.0761.
Then AAAGCCCA, with 0.0724.
With ATTCACGG, the binding signal (normalized occupancy) was found to be 0.0721.
GTGGCGGA: the binding signal (normalized occupancy) was 0.0754.
Then ATAGGAAT, with 0.079; and CGATTTGC, with 0.0663.
